Results as given in the supplement of paper PMC8728848.
The list shows a part of the results.

What was measured:
Experiment in all cases: glycan array binding signal (z-score within array); higher = stronger binding
Details in all cases: glycan notation: IUPAC condensed, linker removed
[1] = biological target: Neu5Ac(a2-3)Gal(b1-4)GlcNAc(b1-3)Gal(b1-4)GlcNAc(b1-3)Gal(b1-4)GlcNAc
Procedure, shortened: (§1)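 The binding signal is a Z-score computed within each array and averaged over linkers. Arrays of the same protein sequence at different concentrations or buffers were also averaged together. Data originate from 3228 arrays in the Consortium for Functional Glycomics database, kept only where the protein sequence was available.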

[2] = biological target: Neu5Ac(a2-3)Gal(b1-4)GlcNAc(b1-3)Gal(b1-4)[Fuc(a1-3)]GlcNAc
Procedure, shortened: as §1

[3] = biological target: Neu5Ac(a2-3)Gal(b1-4)GlcNAc(b1-3)GalNAc
Procedure, shortened: as §1

[4] = biological target: Neu5Ac(a2-3)Gal(b1-4)GlcNAc(b1-6)[Gal(b1-3)]GalNAc
Procedure, shortened: as §1

[5] = biological target: Neu5Ac(a2-3)Gal(b1-4)GlcNAc(b1-6)[Neu5Ac(a2-3)Gal(b1-3)]GalNAc
Procedure, shortened: as §1

[6] = biological target: Neu5Ac(a2-3)Gal(b1-4)GlcNAc6S
Procedure, shortened: as §1

[7] = biological target: Neu5Ac(a2-3)Gal(b1-4)[Fuc(a1-3)]GlcNAc
Procedure, shortened: as §1

[8] = biological target: Neu5Ac(a2-3)Gal(b1-4)[Fuc(a1-3)]GlcNAc(b1-3)Gal
Procedure, shortened: as §1

[9] = biological target: Neu5Ac(a2-3)Gal(b1-4)[Fuc(a1-3)]GlcNAc(b1-3)Gal(b1-4)GlcNAc
Procedure, shortened: as §1

[10] = biological target: Neu5Ac(a2-3)Gal(b1-4)[Fuc(a1-3)]GlcNAc(b1-3)Gal(b1-4)[Fuc(a1-3)]GlcNAc(b1-3)Gal(b1-4)[Fuc(a1-3)]GlcNAc
Procedure, shortened: as §1

[11] = biological target: Neu5Ac(a2-3)Gal(b1-4)[Fuc(a1-3)]GlcNAc(b1-3)GalNAc
Procedure, shortened: as §1

[12] = biological target: Neu5Ac(a2-3)Gal(b1-4)[Fuc(a1-3)]GlcNAc(b1-6)[Gal(b1-3)]GalNAc
Procedure, shortened: as §1

[13] = biological target: Neu5Ac(a2-3)Gal(b1-4)[Fuc(a1-3)]GlcNAc(b1-6)[Neu5Ac(a2-3)Gal(b1-3)]GalNAc
Procedure, shortened: as §1

[14] = biological target: Neu5Ac(a2-3)Gal(b1-4)[Fuc(a1-3)]GlcNAc6S
Procedure, shortened: as §1

[15] = biological target: Neu5Ac(a2-3)Gal6S(b1-4)GlcNAc
Procedure, shortened: as §1

[16] = biological target: Neu5Ac(a2-3)Gal6S(b1-4)[Fuc(a1-3)]GlcNAc
Procedure, shortened: as §1

[17] = biological target: Neu5Ac(a2-3)GalNAc
Procedure, shortened: as §1

[18] = biological target: Neu5Ac(a2-3)GalNAc(b1-4)GlcNAc
Procedure, shortened: as §1

[19] = biological target: Neu5Ac(a2-3)[GalNAc(b1-4)]Gal(b1-4)Glc
Procedure, shortened: as §1

[20] = biological target: Neu5Ac(a2-3)[GalNAc(b1-4)]Gal(b1-4)GlcNAc
Procedure, shortened: as §1

[21] = biological target: Neu5Ac(a2-3)[GalNAc(b1-4)]Gal(b1-4)GlcNAc(b1-3)GalNAc
Procedure, shortened: as §1

[22] = biological target: Neu5Ac(a2-3)[Neu5Ac(a2-6)]GalNAc
Procedure, shortened: as §1

[23] = biological target: Neu5Ac(a2-6)Gal
Procedure, shortened: as §1

[24] = biological target: Neu5Ac(a2-6)Gal(b1-4)Glc
Procedure, shortened: as §1

[25] = biological target: Neu5Ac(a2-6)Gal(b1-4)GlcNAc
Procedure, shortened: as §1

[26] = biological target: Neu5Ac(a2-6)Gal(b1-4)GlcNAc(b1-2)Man(a1-3)Man(b1-4)GlcNAc(b1-4)GlcNAc
Procedure, shortened: as §1

[27] = biological target: Neu5Ac(a2-6)Gal(b1-4)GlcNAc(b1-2)Man(a1-3)[Gal(b1-4)GlcNAc(b1-2)Man(a1-6)]Man(b1-4)GlcNAc(b1-4)GlcNAc
Procedure, shortened: as §1

[28] = biological target: Neu5Ac(a2-6)Gal(b1-4)GlcNAc(b1-2)Man(a1-3)[GlcNAc(b1-2)Man(a1-6)]Man(b1-4)GlcNAc(b1-4)GlcNAc
Procedure, shortened: as §1

[29] = biological target: Neu5Ac(a2-6)Gal(b1-4)GlcNAc(b1-2)Man(a1-3)[GlcNAc(b1-2)Man(b1-4)GlcNAc(b1-2)Man(a1-6)]Man(b1-4)GlcNAc(b1-4)GlcNAc
Procedure, shortened: as §1

[30] = biological target: Neu5Ac(a2-6)Gal(b1-4)GlcNAc(b1-2)Man(a1-3)[Man(a1-6)]Man(b1-4)GlcNAc(b1-4)GlcNAc
Procedure, shortened: as §1

[31] = biological target: Neu5Ac(a2-6)Gal(b1-4)GlcNAc(b1-2)Man(a1-3)[Neu5Ac(a2-6)Gal(b1-4)GlcNAc(b1-2)Man(a1-6)]Man(b1-4)GlcNAc(b1-4)GlcNAc
Procedure, shortened: as §1

[32] = biological target: Neu5Ac(a2-6)Gal(b1-4)GlcNAc(b1-2)Man(a1-6)Man(b1-4)GlcNAc(b1-4)GlcNAc
Procedure, shortened: as §1

[33] = biological target: Neu5Ac(a2-6)Gal(b1-4)GlcNAc(b1-2)Man(a1-6)[Gal(b1-4)GlcNAc(b1-2)Man(a1-3)]Man(b1-4)GlcNAc(b1-4)GlcNAc
Procedure, shortened: as §1

[34] = biological target: Neu5Ac(a2-6)Gal(b1-4)GlcNAc(b1-2)Man(a1-6)[GlcNAc(b1-2)Man(a1-3)]Man(b1-4)GlcNAc(b1-4)GlcNAc
Procedure, shortened: as §1

[35] = biological target: Neu5Ac(a2-6)Gal(b1-4)GlcNAc(b1-2)Man(a1-6)[Man(a1-3)]Man(b1-4)GlcNAc(b1-4)GlcNAc
Procedure, shortened: as §1

[36] = biological target: Neu5Ac(a2-6)Gal(b1-4)GlcNAc(b1-3)Gal(b1-3)GlcNAc
Procedure, shortened: as §1

[37] = biological target: Neu5Ac(a2-6)Gal(b1-4)GlcNAc(b1-3)Gal(b1-4)GlcNAc
Procedure, shortened: as §1

[38] = biological target: Neu5Ac(a2-6)Gal(b1-4)GlcNAc(b1-3)Gal(b1-4)GlcNAc(b1-3)Gal(b1-4)GlcNAc
Procedure, shortened: as §1

[39] = biological target: Neu5Ac(a2-6)Gal(b1-4)GlcNAc(b1-3)Gal(b1-4)[Fuc(a1-3)]GlcNAc(b1-3)Gal(b1-4)[Fuc(a1-3)]GlcNAc
Procedure, shortened: as §1

[40] = biological target: Neu5Ac(a2-6)Gal(b1-4)GlcNAc(b1-3)GalNAc
Procedure, shortened: as §1

[41] = biological target: Neu5Ac(a2-6)Gal(b1-4)GlcNAc6S
Procedure, shortened: as §1

[42] = biological target: Neu5Ac(a2-6)GalNAc
Procedure, shortened: as §1

[43] = biological target: Neu5Ac(a2-6)GalNAc(b1-4)GlcNAc
Procedure, shortened: as §1

[44] = biological target: Neu5Ac(a2-6)GlcNAc(b1-4)GlcNAc
Procedure, shortened: as §1

[45] = biological target: Neu5Ac(a2-6)GlcNAc(b1-4)GlcNAc(b1-4)GlcNAc
Procedure, shortened: as §1

B1: CTLY 1 (Homo sapiens), Q6ZS10 (protein)
chain: AITCPEGWLPFEGKCYYFSPSTKSWDEARMFCQENYSHLVIINSFAEHNFVAKAHGSPRVYWLGLNDRAQEGDWRWLDGSPVTLSFWEPEEPNNIHDEDCATMNKGGTWNDLSCYKTTYWICERKGLNDIFEAQKIEWHE
- glycan array binding signal (z-score) [1]: -0.245
- glycan array binding signal (z-score) [2]: -0.238
- glycan array binding signal (z-score) [3]: -0.209
- glycan array binding signal (z-score) [4]: -0.231
- glycan array binding signal (z-score) [5]: -0.228
- glycan array binding signal (z-score) [6]: -0.232
- glycan array binding signal (z-score) [7]: -0.215
- glycan array binding signal (z-score) [8]: -0.013
- glycan array binding signal (z-score) [9]: -0.122
- glycan array binding signal (z-score) [10]: 1.04
- glycan array binding signal (z-score) [11]: -0.086
- glycan array binding signal (z-score) [12]: -0.209
- glycan array binding signal (z-score) [13]: -0.209
- glycan array binding signal (z-score) [14]: 0.261
- glycan array binding signal (z-score) [15]: -0.212
- glycan array binding signal (z-score) [16]: -0.201
- glycan array binding signal (z-score) [17]: -0.244
- glycan array binding signal (z-score) [18]: -0.23
- glycan array binding signal (z-score) [19]: -0.257
- glycan array binding signal (z-score) [20]: -0.245
- glycan array binding signal (z-score) [21]: -0.218
- glycan array binding signal (z-score) [22]: -0.259
- glycan array binding signal (z-score) [23]: -0.253
- glycan array binding signal (z-score) [24]: -0.23
- glycan array binding signal (z-score) [25]: -0.241
- glycan array binding signal (z-score) [26]: -0.23
- glycan array binding signal (z-score) [27]: -0.253
- glycan array binding signal (z-score) [28]: -0.242
- glycan array binding signal (z-score) [29]: -0.234
- glycan array binding signal (z-score) [30]: -0.239
- glycan array binding signal (z-score) [31]: -0.236
- glycan array binding signal (z-score) [32]: -0.249
- glycan array binding signal (z-score) [33]: -0.234
- glycan array binding signal (z-score) [34]: -0.248
- glycan array binding signal (z-score) [35]: -0.237
- glycan array binding signal (z-score) [36]: -0.245
- glycan array binding signal (z-score) [37]: -0.238
- glycan array binding signal (z-score) [38]: -0.246
- glycan array binding signal (z-score) [39]: 0.105
- glycan array binding signal (z-score) [40]: -0.235
- glycan array binding signal (z-score) [41]: -0.237
- glycan array binding signal (z-score) [42]: -0.248
- glycan array binding signal (z-score) [43]: -0.25
- glycan array binding signal (z-score) [44]: -0.244
- glycan array binding signal (z-score) [45]: -0.24
